The target in assay [1] is T1, Venus N173-fused LWD1 (BiFC) (Arabidopsis thaliana) (UniProt Q9LPV9).
T1 sequence: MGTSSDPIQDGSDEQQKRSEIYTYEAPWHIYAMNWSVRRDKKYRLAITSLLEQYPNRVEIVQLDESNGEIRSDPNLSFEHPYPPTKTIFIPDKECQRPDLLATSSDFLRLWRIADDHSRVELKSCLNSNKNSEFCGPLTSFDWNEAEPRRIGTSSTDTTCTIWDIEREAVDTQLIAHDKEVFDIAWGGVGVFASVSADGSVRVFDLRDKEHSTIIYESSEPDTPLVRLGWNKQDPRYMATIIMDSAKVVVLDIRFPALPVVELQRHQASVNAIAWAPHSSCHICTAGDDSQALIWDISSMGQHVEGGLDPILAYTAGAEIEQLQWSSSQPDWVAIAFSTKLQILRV
Description: split reporter; BiFC: Venus N173 fusions of LWD1 or ΔLWD1 co-expressed with SCFP3A C155 fusions of TCPs in Arabidopsis seedlings (AGROBEST); confocal microscopy three days after infection.

By UniProt entry, the sequences of proteins in these tests, tags left out.
UniProt Q9FTA2: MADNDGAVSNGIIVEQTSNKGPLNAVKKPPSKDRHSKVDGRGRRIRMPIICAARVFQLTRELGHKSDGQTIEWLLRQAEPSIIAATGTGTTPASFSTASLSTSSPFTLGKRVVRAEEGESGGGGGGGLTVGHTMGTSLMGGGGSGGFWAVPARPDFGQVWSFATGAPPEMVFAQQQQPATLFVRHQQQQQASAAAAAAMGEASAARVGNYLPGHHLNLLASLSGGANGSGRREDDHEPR
UniProt Q9FMX2: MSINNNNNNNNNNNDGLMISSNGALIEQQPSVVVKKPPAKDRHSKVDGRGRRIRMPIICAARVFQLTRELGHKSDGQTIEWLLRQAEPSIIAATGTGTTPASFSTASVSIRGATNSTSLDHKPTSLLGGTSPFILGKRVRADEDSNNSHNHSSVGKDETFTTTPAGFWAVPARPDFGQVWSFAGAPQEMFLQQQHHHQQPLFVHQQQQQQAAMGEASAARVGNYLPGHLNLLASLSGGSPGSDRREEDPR
UniProt Q9LSD5: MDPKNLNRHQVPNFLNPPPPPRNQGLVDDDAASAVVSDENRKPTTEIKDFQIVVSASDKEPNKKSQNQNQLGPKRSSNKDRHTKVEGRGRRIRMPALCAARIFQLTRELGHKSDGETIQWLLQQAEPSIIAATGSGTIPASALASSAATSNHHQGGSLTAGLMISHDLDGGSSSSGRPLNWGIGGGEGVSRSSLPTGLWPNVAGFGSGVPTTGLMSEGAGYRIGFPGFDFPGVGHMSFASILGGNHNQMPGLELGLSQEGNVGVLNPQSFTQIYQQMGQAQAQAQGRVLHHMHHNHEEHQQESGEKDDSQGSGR
UniProt Q9C518: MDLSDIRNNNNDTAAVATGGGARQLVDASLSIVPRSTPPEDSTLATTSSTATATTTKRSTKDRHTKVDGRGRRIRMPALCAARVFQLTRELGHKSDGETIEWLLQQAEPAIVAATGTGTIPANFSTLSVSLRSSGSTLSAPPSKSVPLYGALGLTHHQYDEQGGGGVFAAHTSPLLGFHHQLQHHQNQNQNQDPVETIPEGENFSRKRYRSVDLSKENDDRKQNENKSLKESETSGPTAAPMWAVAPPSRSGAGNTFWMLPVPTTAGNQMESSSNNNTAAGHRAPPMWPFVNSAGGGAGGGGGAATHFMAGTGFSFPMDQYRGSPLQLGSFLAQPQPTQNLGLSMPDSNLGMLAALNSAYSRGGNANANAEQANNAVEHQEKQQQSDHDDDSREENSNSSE
UniProt Q9LQF0: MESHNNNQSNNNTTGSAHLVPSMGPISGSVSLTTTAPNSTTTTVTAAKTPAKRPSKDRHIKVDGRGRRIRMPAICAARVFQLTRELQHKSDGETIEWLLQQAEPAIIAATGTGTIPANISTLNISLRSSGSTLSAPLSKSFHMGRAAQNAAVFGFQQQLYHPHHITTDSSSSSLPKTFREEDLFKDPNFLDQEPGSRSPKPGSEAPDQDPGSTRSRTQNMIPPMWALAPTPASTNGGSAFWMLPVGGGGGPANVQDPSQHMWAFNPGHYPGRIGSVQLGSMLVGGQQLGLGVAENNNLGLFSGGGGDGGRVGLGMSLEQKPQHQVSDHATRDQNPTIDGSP
UniProt Q9C7G4: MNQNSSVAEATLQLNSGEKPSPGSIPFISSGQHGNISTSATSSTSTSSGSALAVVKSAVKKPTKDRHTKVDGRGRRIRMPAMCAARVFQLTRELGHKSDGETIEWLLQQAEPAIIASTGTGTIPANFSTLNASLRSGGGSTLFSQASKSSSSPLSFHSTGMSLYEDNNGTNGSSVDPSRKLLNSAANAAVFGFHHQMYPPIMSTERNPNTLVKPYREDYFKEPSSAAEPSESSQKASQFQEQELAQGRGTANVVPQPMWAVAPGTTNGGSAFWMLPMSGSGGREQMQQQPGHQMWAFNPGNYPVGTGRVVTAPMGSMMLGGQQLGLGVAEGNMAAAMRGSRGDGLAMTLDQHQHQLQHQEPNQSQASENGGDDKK
UniProt O64647: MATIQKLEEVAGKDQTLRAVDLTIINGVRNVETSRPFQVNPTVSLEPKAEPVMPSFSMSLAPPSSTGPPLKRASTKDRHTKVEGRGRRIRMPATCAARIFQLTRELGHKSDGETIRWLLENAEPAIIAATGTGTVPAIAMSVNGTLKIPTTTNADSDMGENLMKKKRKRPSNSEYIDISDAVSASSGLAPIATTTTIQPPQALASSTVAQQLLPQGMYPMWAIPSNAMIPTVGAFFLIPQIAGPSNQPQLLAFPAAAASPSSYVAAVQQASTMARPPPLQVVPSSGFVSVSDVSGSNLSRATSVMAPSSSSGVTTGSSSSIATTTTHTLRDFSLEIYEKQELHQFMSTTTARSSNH
UniProt Q93Z00: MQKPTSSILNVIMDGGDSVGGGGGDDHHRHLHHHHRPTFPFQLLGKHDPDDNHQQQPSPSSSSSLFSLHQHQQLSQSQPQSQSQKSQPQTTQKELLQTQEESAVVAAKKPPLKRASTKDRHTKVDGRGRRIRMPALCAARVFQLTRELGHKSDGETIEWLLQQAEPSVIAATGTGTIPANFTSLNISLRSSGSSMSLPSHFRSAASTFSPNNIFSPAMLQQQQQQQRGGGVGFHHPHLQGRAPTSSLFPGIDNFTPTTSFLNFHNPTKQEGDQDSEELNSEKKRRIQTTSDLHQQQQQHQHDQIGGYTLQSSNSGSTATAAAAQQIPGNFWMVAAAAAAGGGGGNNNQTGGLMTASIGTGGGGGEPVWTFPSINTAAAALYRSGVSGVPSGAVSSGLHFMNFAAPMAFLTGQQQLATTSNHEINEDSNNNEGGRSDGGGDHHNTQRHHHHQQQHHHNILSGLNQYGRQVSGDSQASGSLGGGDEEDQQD

Assay [2] concerns the target T2, LIGHT-REGULATED WD1 (LWD1), yeast two-hybrid bait (Arabidopsis thaliana) (UniProt Q9LPV9).
T2 sequence: T1 sequence
Description: two-hybrid; pairwise, GAL4-based system (…, Clontech): LWD1 or LWD2 in pDBLeu as bait, TCPs in pEXP-AD502HA as prey; growth on SD-WLH with 3-AT (2 mM in Fig. 2a), reporter gene HIS3. A general note: A reporter such as luciferase makes a cellular process visible.

The target of assay [3] is T3, LIGHT-REGULATED WD2 (LWD2), yeast two-hybrid bait (Arabidopsis thaliana) (UniProt Q38960).
T3 sequence: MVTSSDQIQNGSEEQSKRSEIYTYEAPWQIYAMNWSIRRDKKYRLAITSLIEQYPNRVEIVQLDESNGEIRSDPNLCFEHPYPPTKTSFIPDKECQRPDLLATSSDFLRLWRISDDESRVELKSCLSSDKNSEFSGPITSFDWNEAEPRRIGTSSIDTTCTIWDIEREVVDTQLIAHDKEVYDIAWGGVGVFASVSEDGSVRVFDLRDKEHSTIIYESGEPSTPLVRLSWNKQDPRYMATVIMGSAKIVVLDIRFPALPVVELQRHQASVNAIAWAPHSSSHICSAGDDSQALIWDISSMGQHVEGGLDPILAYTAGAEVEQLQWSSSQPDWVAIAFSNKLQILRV
Described as above.

Assay [4] deals with T2, LIGHT-REGULATED WD1 (LWD1), yeast two-hybrid bait (Arabidopsis thaliana). Kind of assay: two-hybrid; library screen: LWD1 as bait against a prey library of about 1,400 Arabidopsis full-length transcription factors; positive clones sequenced.
Assay [5] addresses T4, NLUC2-LWD1 (luciferase complementation imaging) (Arabidopsis thaliana) (UniProt Q9LPV9).
T4 sequence: T1 sequence
Description: split reporter; luciferase complementation imaging: NLUC2 fusions of LWD1 or ΔLWD1 with CLUC2 fusions of TCP20 or TCP22, under native promoters, in Arabidopsis seedlings (AGROBEST).

Assay [6] addresses T5, NLUC2-ΔLWD1 (luciferase complementation imaging), truncated LWD1 lacking amino acids 236–290 (Arabidopsis thaliana) (UniProt Q9LPV9).
T5 sequence: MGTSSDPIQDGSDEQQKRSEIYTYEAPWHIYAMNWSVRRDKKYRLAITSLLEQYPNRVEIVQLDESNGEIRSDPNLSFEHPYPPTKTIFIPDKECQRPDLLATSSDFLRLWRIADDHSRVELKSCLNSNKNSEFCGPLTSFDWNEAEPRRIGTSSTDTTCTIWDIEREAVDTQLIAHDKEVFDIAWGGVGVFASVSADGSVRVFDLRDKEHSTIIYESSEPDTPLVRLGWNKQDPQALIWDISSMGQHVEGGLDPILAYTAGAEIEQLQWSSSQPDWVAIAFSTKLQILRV
The assay is described as above.

These are yes or no findings as the source states them, for the method shown. For some assays here: In cells and extracts the contact can be indirect. Some binding calls cover weakened binding; strength is not graded here. For some assays here: Where a sequence is shown, tags or fusion partners need not be part of it.

Regarding “SCFP3A C155-fused CHE (BiFC) (from UniProt Q9FTA2 1-239)”, the binding entry in assay [1] was “binds”.

Consider “TCP7, prey in pEXP-AD502HA (from UniProt Q9FMX2 1-250)”, for which the binding entry in assay [2] and in assay [3] was “binds” in each case.

Turning to “SCFP3A C155-fused TCP20 (BiFC) (from UniProt Q9LSD5 1-314)”, the binding entry in assay [1] was “binds”.

“TCP8, prey in pEXP-AD502HA (from UniProt Q9C518 1-401)”: the binding result in assay [2] and in assay [3] was “binds” each time.

Take “TCP23, prey in pEXP-AD502HA (from UniProt Q9LQF0 1-341)”: the binding entry in assay [2] and in assay [3] was “binds” throughout.

As for “TCP15, prey in pEXP-AD502HA (from UniProt Q9C9L2 1-325)”, the binding result in assay [2] and in assay [3] was “binds” throughout.

Regarding “CCA1 HIKING EXPEDITION (CHE), prey of the transcription factor library (from UniProt Q9FTA2 1-239)”, in assay [4], the binding entry was “binds”.

Consider “TEOSINTE BRANCHED 1-CYCLOIDEA-PCF22 (TCP22), prey of the transcription factor library (from UniProt Q9C7G4 1-375)”, for which the binding entry in assay [4] was “binds”.

“TCP9, prey in pEXP-AD502HA (from UniProt O64647 1-356)”: the binding entry in assay [2] and in assay [3] was “binds” in each case.

Consider “CLUC2-TCP22 (luciferase complementation imaging) (from UniProt Q9C7G4 1-375)”, for which the figures for the binding result in assay [5] and in assay [6] were “binds” and “no binding”, respectively.

For “TCP14, prey in pEXP-AD502HA (from UniProt Q93Z00 1-489)”, the binding entry in assay [2] and in assay [3] was “binds” each time.

Turning to “TEOSINTE BRANCHED 1-CYCLOIDEA-PCF22 (TCP22), prey in pEXP-AD502HA (from UniProt Q9C7G4 1-375)”, the binding entry in assay [2] and in assay [3] was “binds” throughout.

Regarding “CLUC2-TCP20 (luciferase complementation imaging) (from UniProt Q9LSD5 1-314)”, the results for the binding result in assay [5] and in assay [6] were “binds” and “no binding”, respectively.

Turning to “TEOSINTE BRANCHED 1-CYCLOIDEA-PCF20 (TCP20), prey of the transcription factor library (from UniProt Q9LSD5 1-314)”, the binding result in assay [4] was “binds”.

As for “SCFP3A C155-fused TCP22 (BiFC) (from UniProt Q9C7G4 1-375)”, the binding result in assay [1] was “binds”.

With “TEOSINTE BRANCHED 1-CYCLOIDEA-PCF20 (TCP20), prey in pEXP-AD502HA (from UniProt Q9LSD5 1-314)”, the binding result in assay [2] and in assay [3] was “binds” each time.

Values taken from publication PMC5065627.
